This passage reports cytotoxicity call and growth inhibition call results from the antibiotic and cytotoxicity screens of Wong et al. (2023).

Each structure is given as a SMILES string. The list shows a part of the results.

The test system of assay [1] is HSkMC (human skeletal muscle cells). The assay can be described thus: cytotoxicity call (relative viability < 0.9). The note with it: 10 µM.
For assay [2], the system named is HepG2. The assay can be described thus: cytotoxicity call (relative viability < 0.9). The note with it: 10 µM.
The test system of assay [3] is S. aureus RN4220. As to the kind of experiment: growth inhibition call (relative growth <= 0.2). The note with it: 50 µM.

`C[C@@H]1CN([C@H](C)CO)C(=O)Cc2cc(NC(=O)c3ccncc3)ccc2O[C@H]1CN(C)C(=O)NC1CCCCC1`: the cytotoxicity call in assay [1] and in assay [2] was “inactive” each time. For the same compound, in assay [3], the growth inhibition call is “inactive”.

Turning to `C[C@H]1C[C@@H](OC2[C@@H](O)[C@H](O)[C@H](O)[C@H](O)[C@@H]2O)[C@@H](N)C[C@@H]1NC(=N)C(=O)O` (stereo partly specified), the cytotoxicity call in assay [1] and in assay [2] was “inactive” each time. Moreover, the growth inhibition call in assay [3] was “inactive”.

Consider `C[C@H](CO)N1C[C@H](C)[C@@H](CN(C)Cc2ccc(C(F)(F)F)cc2)Oc2ccc(NC(=O)Cn3cnnn3)cc2CC1=O`, for which the cytotoxicity call in assay [1] and in assay [2] was “inactive” throughout. For the same compound, the growth inhibition call in assay [3] is “inactive”.

`C[C@H]1CCCCO[C@H](CN(C)Cc2ccc(C(=O)O)cc2)[C@@H](C)CN([C@@H](C)CO)C(=O)c2cc(NC(=O)Nc3ccc(F)cc3)ccc2O1`: the cytotoxicity call in assay [1] and in assay [2] was “inactive” throughout. The growth inhibition call in assay [3] was “inactive”.

`COc1ccc(NC(=O)N(C)C[C@H]2OCCCC[C@@H](C)Oc3ccc(NC(=O)C4CCCCC4)cc3C(=O)N([C@H](C)CO)C[C@H]2C)cc1`: the cytotoxicity call in assay [1] and in assay [2] was “inactive” throughout. Also, the growth inhibition call in assay [3] is “inactive”.

In the case of `C[C@@H]1CCCCO[C@H](CN(C)C(=O)C2CCCCC2)[C@@H](C)CN([C@@H](C)CO)C(=O)c2cc(NC(=O)Cc3ccccc3)ccc2O1`, the cytotoxicity call in assay [1] and in assay [2] was “inactive” in each case. Moreover, the growth inhibition call in assay [3] was “inactive”.

As to `COc1ccc([Si](C)(C)[C@H]2[C@H](CC(=O)N3CCC[C@H]3CO)O[C@@]3(C(=O)N(Cc4ccc(N5CCCCC5=O)cc4)c4ccccc43)[C@@H]2C)cc1`, the cytotoxicity call in assay [1] and in assay [2] was “inactive” each time. In addition, the growth inhibition call in assay [3] is “inactive”.

For the compound `CN(C)Cc1cn(CC[C@@H]2CC[C@H](NS(=O)(=O)c3ccccc3)[C@@H](CO)O2)nn1`, the cytotoxicity call in assay [1] and in assay [2] was “inactive” throughout. For the same compound, in assay [3], the growth inhibition call is “inactive”.

Regarding `COc1cccc(S(=O)(=O)N(C)C[C@@H]2Oc3cc(C4=CCCC4)ccc3S(=O)(=O)N([C@@H](C)CO)C[C@@H]2C)c1`, the cytotoxicity call in assay [1] and in assay [2] was “inactive” each time. In addition, the growth inhibition call in assay [3] is “inactive”.

Consider `C[C@H]1CCCCO[C@@H](CN(C)C(=O)Nc2ccccc2)[C@@H](C)CN([C@@H](C)CO)C(=O)c2cc(NC(=O)Nc3cccc4ccccc34)ccc2O1`, for which the cytotoxicity call in assay [1] and in assay [2] was “inactive” each time. For the same compound, the growth inhibition call in assay [3] was “inactive”.

On to `O=C(NC1CCCCC1)[C@@H]1C(c2ccc(Cl)cc2)=C(S(=O)(=O)c2ccccc2)C(=O)N1Cc1ccc(-c2ccccc2)cc1`, for which the cytotoxicity call in assay [1] and in assay [2] was “inactive” each time. Moreover, the growth inhibition call in assay [3] was “inactive”.

As to `C[C@@H]1CN([C@H](C)CO)C(=O)Cc2cc(NS(=O)(=O)c3cccs3)ccc2O[C@H]1CN(C)S(C)(=O)=O`, the cytotoxicity call in assay [1] and in assay [2] was “inactive” in each case. Further, the growth inhibition call in assay [3] is “inactive”.

`CNC[C@H]1Oc2cc(C#CCN(C)C)ccc2S(=O)(=O)N([C@H](C)CO)C[C@@H]1C`: the cytotoxicity call in assay [1] and in assay [2] was “inactive” throughout. The growth inhibition call in assay [3] was “inactive”.

Take `C[C@@H]1CCCCO[C@@H](CN(C)Cc2ccc(C(=O)O)cc2)[C@@H](C)CN([C@@H](C)CO)C(=O)c2cc(NC(=O)Nc3ccccc3)ccc2O1`: the cytotoxicity call in assay [1] and in assay [2] was “inactive” each time. Further, the growth inhibition call in assay [3] is “inactive”.

For the compound `Cn1cnc(S(=O)(=O)N2C[C@H](O)COC[C@@H]3O[C@H](CC(=O)N4CCN(c5ccccc5)CC4)CC[C@H]32)c1`, the cytotoxicity call in assay [1] and in assay [2] was “inactive” throughout. Also, in assay [3], the growth inhibition call is “inactive”.

`C[C@@H]1CN([C@H](C)CO)C(=O)c2ccccc2-c2ccccc2CO[C@@H]1CN(C)S(=O)(=O)c1ccc(C(F)(F)F)cc1`: the cytotoxicity call in assay [1] and in assay [2] was “inactive” in each case. In addition, the growth inhibition call in assay [3] is “inactive”.

For the compound `C[C@@H]1CN([C@@H](C)CO)C(=O)c2cccc(NC(=O)c3nc4ccccc4s3)c2O[C@H]1CN(C)C(=O)Nc1cccc2ccccc12`, the cytotoxicity call in assay [1] is “inactive”. Also, the cytotoxicity call in assay [2] was “active”. The growth inhibition call in assay [3] was “inactive”.

For the compound `CC(C)NC(=O)Nc1ccc2c(c1)CC(=O)N([C@@H](C)CO)C[C@H](C)[C@@H](CN(C)C(=O)NC1CCCCC1)O2`, the cytotoxicity call in assay [1] and in assay [2] was “inactive” throughout. Further, the growth inhibition call in assay [3] is “inactive”.

With `C[C@@H]1CN([C@H](C)CO)S(=O)(=O)c2ccc(C#CCN(C)C)cc2O[C@@H]1CN(C)C(=O)C1CCCCC1`, the cytotoxicity call in assay [1] and in assay [2] was “inactive” each time. Further, the growth inhibition call in assay [3] is “inactive”.

As to `O=C(O)C1OC(Oc2cc3oc(-c4ccccc4)cc(=O)c3c(O)c2O)C(O)C(O)C1O` (stereo unspecified), the cytotoxicity call in assay [1] and in assay [2] was “inactive” throughout. For the same compound, the growth inhibition call in assay [3] was “inactive”.

As for `COc1ccc(NC(=O)Nc2ccc3c(c2)C(=O)N([C@H](C)CO)C[C@H](C)[C@H](CN(C)C(=O)Nc2cccc4ccccc24)O3)cc1`, the cytotoxicity call in assay [1] and in assay [2] was “inactive” in each case. In assay [3], the growth inhibition call is “inactive”.

Turning to `O=C(O)c1cc2ncc(CCO)cn2n1`, the cytotoxicity call in assay [1] and in assay [2] was “inactive” in each case. Further, the growth inhibition call in assay [3] was “inactive”.

`C[C@@H]1CN([C@H](C)CO)C(=O)c2cc(NC(=O)CCCN(C)C)ccc2O[C@@H]1CN(C)C(=O)NC1CCCCC1`: the cytotoxicity call in assay [1] and in assay [2] was “inactive” throughout. The growth inhibition call in assay [3] is “inactive”.

Regarding `C[C@H]1CN([C@@H](C)CO)C(=O)Cc2cc(NC(=O)CCN3CCOCC3)ccc2O[C@H]1CN(C)Cc1ccccc1`, the cytotoxicity call in assay [1] and in assay [2] was “inactive” each time. For the same compound, the growth inhibition call in assay [3] is “inactive”.

In the case of `Cc1ccc(S(=O)(=O)N(C)C[C@H]2OCCCC[C@H](C)Oc3ccc(NS(C)(=O)=O)cc3C(=O)N([C@@H](C)CO)C[C@H]2C)cc1`, the cytotoxicity call in assay [1] and in assay [2] was “inactive” throughout. Also, the growth inhibition call in assay [3] was “inactive”.

On to `C=CCC[C@H](Cc1ccc(F)cc1)C(=O)O[C@@H](CNC(=O)[C@@H](CC=C)CC(=O)N(CCO)Cc1ccccc1)c1ccccc1`, for which the cytotoxicity call in assay [1] and in assay [2] was “active” throughout. Besides, the growth inhibition call in assay [3] is “inactive”.

For `C[C@H](CO)N1C[C@H](C)[C@@H](CN(C)C(=O)Nc2ccc(F)cc2)Oc2c(NC(=O)c3cnccn3)cccc2C1=O`, the cytotoxicity call in assay [1] and in assay [2] was “inactive” throughout. Also, the growth inhibition call in assay [3] is “inactive”.
